# Assay results taken from the supplement of paper PMC8728848.
# The list shows a part of the results.
# How the values were obtained:
# Test in all cases: glycan array binding signal (z-score within array); higher = stronger binding
# Settings in all cases: glycan notation: IUPAC condensed, linker removed
# [1] = biological target: GlcNAc(b1-4)[GlcNAc(b1-6)]GalNAc
# Outline: (§1)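 The binding signal is a Z-score computed within each array. Data were drawn from 3228 arrays in the Consortium for Functional Glycomics database, restricted to those with a known protein sequence. Scores were averaged over arrays of the same protein sequence at different concentrations or buffers, and over linkers, and negative values can be taken as non-binding.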
# [2] = biological target: GlcNAc(b1-6)Gal(b1-4)GlcNAc
# Outline: as §1
# GlcNAc(b1-6)GalNAc = biological target: GlcNAc(b1-6)GalNAc
# Outline: as §1
# [3] = biological target: GlcNAc6S(b1-3)Gal(b1-4)GlcNAc
# Outline: as §1
# Kdn(a2-3)Gal(b1-3)GalNAc = biological target: Kdn(a2-3)Gal(b1-3)GalNAc
# Outline: as §1
# Kdn(a2-3)Gal(b1-3)GlcNAc = biological target: Kdn(a2-3)Gal(b1-3)GlcNAc
# Outline: as §1
# Kdn(a2-3)Gal(b1-4)Glc = biological target: Kdn(a2-3)Gal(b1-4)Glc
# Outline: as §1
# Kdn(a2-3)Gal(b1-4)GlcNAc = biological target: Kdn(a2-3)Gal(b1-4)GlcNAc
# Outline: as §1
# [4] = biological target: Kdn(a2-3)Gal(b1-4)[Fuc(a1-3)]GlcNAc
# Outline: as §1
# Kdn(a2-6)Gal(b1-4)GlcNAc = biological target: Kdn(a2-6)Gal(b1-4)GlcNAc
# Outline: as §1
# [5] = biological target: Man(a1-2)Man(a1-2)Man(a1-3)Man
# Outline: as §1
# [6] = biological target: Man(a1-2)Man(a1-2)Man(a1-6)[Man(a1-3)]Man
# Outline: as §1
# Man(a1-2)Man(a1-3)Man = biological target: Man(a1-2)Man(a1-3)Man
# Outline: as §1
# [7] = biological target: Man(a1-2)Man(a1-3)[Man(a1-2)Man(a1-6)]Man
# Outline: as §1
# [8] = biological target: Man(a1-2)Man(a1-3)[Man(a1-2)Man(a1-6)]Man(a1-6)[Man(a1-2)Man(a1-2)Man(a1-3)]Man
# Outline: as §1
# [9] = biological target: Man(a1-2)Man(a1-3)[Man(a1-2)Man(a1-6)]Man(a1-6)[Man(a1-2)Man(a1-2)Man(a1-3)]Man(b1-4)GlcNAc(b1-4)GlcNAc
# Outline: as §1
# [10] = biological target: Man(a1-2)Man(a1-3)[Man(a1-6)]Man(a1-6)[Man(a1-2)Man(a1-3)]Man(b1-4)GlcNAc(b1-4)GlcNAc
# Outline: as §1
# [11] = biological target: Man(a1-2)Man(a1-6)[Man(a1-3)]Man(a1-6)[Man(a1-2)Man(a1-2)Man(a1-3)]Man
# Outline: as §1
# [12] = biological target: Man(a1-2)Man(a1-6)[Man(a1-3)]Man(a1-6)[Man(a1-2)Man(a1-2)Man(a1-3)]Man(b1-4)GlcNAc(b1-4)GlcNAc
# Outline: as §1
# Man(a1-3)[Man(a1-6)]Man = biological target: Man(a1-3)[Man(a1-6)]Man
# Outline: as §1
# [13] = biological target: Man(a1-3)[Man(a1-6)]Man(a1-6)[Man(a1-2)Man(a1-3)]Man(b1-4)GlcNAc(b1-4)GlcNAc
# Outline: as §1
# [14] = biological target: Man(a1-3)[Man(a1-6)]Man(a1-6)[Man(a1-3)]Man
# Outline: as §1
# [15] = biological target: Man(a1-3)[Man(a1-6)]Man(a1-6)[Man(a1-3)]Man(b1-4)GlcNAc(b1-4)GlcNAc
# Outline: as §1
# [16] = biological target: Man(a1-3)[Man(a1-6)]Man(b1-4)GlcNAc(b1-4)GlcNAc
# Outline: as §1
# [17] = biological target: Man(a1-3)[Man(a1-6)]Man(b1-4)GlcNAc(b1-4)[Fuc(a1-6)]GlcNAc
# Outline: as §1
# Man(a1-6)Man = biological target: Man(a1-6)Man
# Outline: as §1
# Man(b1-4)GlcNAc = biological target: Man(b1-4)GlcNAc
# Outline: as §1
# MurNAc(b1-4)GlcNAc = biological target: MurNAc(b1-4)GlcNAc
# Outline: as §1
# Neu5Ac(a2-3)Gal = biological target: Neu5Ac(a2-3)Gal
# Outline: as §1
# [18] = biological target: Neu5Ac(a2-3)Gal(b1-3)GalNAc
# Outline: as §1
# [19] = biological target: Neu5Ac(a2-3)Gal(b1-3)GalNAc(b1-3)Gal(a1-4)Gal(b1-4)Glc
# Outline: as §1
# [20] = biological target: Neu5Ac(a2-3)Gal(b1-3)GalNAc(b1-4)[Neu5Ac(a2-3)]Gal(b1-4)Glc
# Outline: as §1
# [21] = biological target: Neu5Ac(a2-3)Gal(b1-3)GalNAc(b1-4)[Neu5Ac(a2-8)Neu5Ac(a2-3)]Gal(b1-4)Glc
# Outline: as §1
# [22] = biological target: Neu5Ac(a2-3)Gal(b1-3)GalNAc6S
# Outline: as §1
# [23] = biological target: Neu5Ac(a2-3)Gal(b1-3)GlcNAc
# Outline: as §1
# [24] = biological target: Neu5Ac(a2-3)Gal(b1-3)GlcNAc(b1-2)Man
# Outline: as §1
# [25] = biological target: Neu5Ac(a2-3)Gal(b1-3)GlcNAc(b1-2)Man(a1-3)[GlcNAc(b1-4)][Neu5Ac(a2-3)Gal(b1-3)GlcNAc(b1-2)Man(a1-6)]Man(b1-4)GlcNAc(b1-4)GlcNAc
# Outline: as §1
# [26] = biological target: Neu5Ac(a2-3)Gal(b1-3)GlcNAc(b1-2)Man(a1-3)[Neu5Ac(a2-3)Gal(b1-3)GlcNAc(b1-2)Man(a1-6)]Man(b1-4)GlcNAc(b1-4)GlcNAc
# Outline: as §1
# [27] = biological target: Neu5Ac(a2-3)Gal(b1-3)GlcNAc(b1-3)Gal(b1-3)GlcNAc
# Outline: as §1
# [28] = biological target: Neu5Ac(a2-3)Gal(b1-3)GlcNAc(b1-3)Gal(b1-4)GlcNAc
# Outline: as §1
# [29] = biological target: Neu5Ac(a2-3)Gal(b1-3)GlcNAc(b1-3)GalNAc
# Outline: as §1
# [30] = biological target: Neu5Ac(a2-3)Gal(b1-3)GlcNAc(b1-4)Gal(b1-4)Glc
# Outline: as §1
# [31] = biological target: Neu5Ac(a2-3)Gal(b1-3)GlcNAc(b1-6)GalNAc
# Outline: as §1
# [32] = biological target: Neu5Ac(a2-3)Gal(b1-3)GlcNAc6S
# Outline: as §1
# [33] = biological target: Neu5Ac(a2-3)Gal(b1-3)[Fuc(a1-4)]GlcNAc
# Outline: as §1
binder,measurement,setting,value
Fm1D (Escherichia coli) (protein) FSCNVDGGSSIGAGTTSVYVNLDPVIQPGQNLVVDLSQHISCWNDYGGWYDTDHINLVQGSAFAGSLQSYKGSLYWNNVTYPFPLTTNTNVLDIGDKTPMPLPLKLYITPVGAAGGVVIKAGEVIARIHMYKIATLGSGNPRNFTWNIISNNSVVMPTHHHHHH,glycan array binding signal (z-score),[1],-0.144
same,glycan array binding signal (z-score),[2],-0.134
same,glycan array binding signal (z-score),GlcNAc(b1-6)GalNAc,-0.11
same,glycan array binding signal (z-score),[3],-0.144
same,glycan array binding signal (z-score),Kdn(a2-3)Gal(b1-3)GalNAc,-0.14
same,glycan array binding signal (z-score),Kdn(a2-3)Gal(b1-3)GlcNAc,-0.145
same,glycan array binding signal (z-score),Kdn(a2-3)Gal(b1-4)Glc,-0.144
same,glycan array binding signal (z-score),Kdn(a2-3)Gal(b1-4)GlcNAc,-0.146
same,glycan array binding signal (z-score),[4],-0.13
same,glycan array binding signal (z-score),Kdn(a2-6)Gal(b1-4)GlcNAc,-0.151
same,glycan array binding signal (z-score),[5],-0.145
same,glycan array binding signal (z-score),[6],-0.142
same,glycan array binding signal (z-score),Man(a1-2)Man(a1-3)Man,-0.148
same,glycan array binding signal (z-score),[7],-0.147
same,glycan array binding signal (z-score),[8],-0.148
same,glycan array binding signal (z-score),[9],-0.141
same,glycan array binding signal (z-score),[10],-0.153
same,glycan array binding signal (z-score),[11],-0.147
same,glycan array binding signal (z-score),[12],-0.144
same,glycan array binding signal (z-score),Man(a1-3)[Man(a1-6)]Man,-0.142
same,glycan array binding signal (z-score),[13],-0.144
same,glycan array binding signal (z-score),[14],-0.147
same,glycan array binding signal (z-score),[15],-0.14
same,glycan array binding signal (z-score),[16],-0.144
same,glycan array binding signal (z-score),[17],-0.142
same,glycan array binding signal (z-score),Man(a1-6)Man,-0.15
same,glycan array binding signal (z-score),Man(b1-4)GlcNAc,-0.148
same,glycan array binding signal (z-score),MurNAc(b1-4)GlcNAc,-0.142
same,glycan array binding signal (z-score),Neu5Ac(a2-3)Gal,-0.147
same,glycan array binding signal (z-score),[18],-0.146
same,glycan array binding signal (z-score),[19],-0.129
same,glycan array binding signal (z-score),[20],-0.151
same,glycan array binding signal (z-score),[21],-0.145
same,glycan array binding signal (z-score),[22],-0.141
same,glycan array binding signal (z-score),[23],-0.143
same,glycan array binding signal (z-score),[24],-0.135
same,glycan array binding signal (z-score),[25],-0.139
same,glycan array binding signal (z-score),[26],-0.145
same,glycan array binding signal (z-score),[27],-0.148
same,glycan array binding signal (z-score),[28],-0.141
same,glycan array binding signal (z-score),[29],-0.147
same,glycan array binding signal (z-score),[30],-0.143
same,glycan array binding signal (z-score),[31],-0.129
same,glycan array binding signal (z-score),[32],-0.143
same,glycan array binding signal (z-score),[33],-0.134
